Laboratory results: the supplement of paper PMC12217912
Some of the results follow. The full chains were built here from the parent and the listed change. Values near 0.05 are background.

B1: TEV protease; numbered along this chain (parent)
chain: MGESLFKGPRDYNPISSSICHLTNESDGHTTSLYGIGFGPFIITNKHLFRRNNGTLVVQSLHGVFKVKDTTTLQQHLVDGRDMIIIRMPKDFPPFPQKLKFREPQREERICLVTTNFQTKSMSSMVSDTSCTFPSGDGIFWKHWIQTKDGQCGSPLVSTRDGFIVGIHSASNFTNTNNYFTSVPKNFMELLTNQEAQQWVSGWRLNADSVLWGGHKVFMVKPEEPFQPVKEATQL

Variants of: B1
Assay: raw area under fraction-flipped curve 0-4 h after induction (AUC4h, not background-subtracted), DNA-recorder readout of cleavage of the substrate (dimensionless); higher = more cleavage of the substrate by the protease variant
Conditions: temperature: 34 °C; time window: 0-4 h after rhamnose induction
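Also: Bxb1 expression induced with 0.2% (w/v) L-rhamnose at OD600 near 0.5, cultures sampled hourly, flipped fraction per protease–substrate barcode pair counted by paired-end Illumina sequencing.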

For MGESLFKGPRDYNPISSSICHLTNESDGHTTSLYGIGFGPFIITNKHLFRRNNGTLVVQSLHGVFKVKDTTTLQQHLVDGRDMIIIRMPKDFPPFPQKLKFREPQREERICLVTTNFQTKSMSSMVSDTSCTFPSGDGIFWKHWIQTKDGQCGSPLVSTRDGFIVGIHSASNFTNTNNYFTSVPKNFMELLTNQEAQQWVSGWRLNADSVLWGVHKVFMVKPEEPFQPVKEATQL [G214V], the “area with substrate CNLYFQS” value was 0.0666, the “area with substrate HNLYFQS” value was 0.0746 and the “area with substrate MNLYFQS” value was 0.0494. The “area with substrate NNLYFQS” value was 0.0472, the “area with substrate TNLYFQS” value was 0.0595 and the “area with substrate WNLYFQS” value was 0.0534.

In the case of MGESLFKGPRDYNPISSSICHLTNESDGHTTSLYGIGFGPFIITNKHLFRRNNGTLVVQSLHGVFKVKDTTTLQQHLVDGRDMIIIRMPKDFPPFPQKLKFREPQREERICLVTTNFQTKSMSSMVSDTSCTFPSGDGIFWKHWIQTKDGQCGSPLVSTRDGFIVGIHSASNFTNTNNYFTSVPKNFMELLTNQEAQQWVSGWRLNADSVLWGGGKVFMVKPEEPFQPVKEATQL [H215G], the “area with substrate CNLYFQS” value is reported as 0.0567, the “area with substrate FNLYFQS” value is reported as 0.0589 and the “area with substrate GNLYFQS” value is reported as 0.0912. The “area with substrate HNLYFQS” value was 0.0592, the “area with substrate INLYFQS” value was 0.0595 and the “area with substrate MNLYFQS” value was 0.0625. The “area with substrate NNLYFQS” value was 0.0619, the “area with substrate RNLYFQS” value was 0.0712 and the “area with substrate TNLYFQS” value was 0.0552. The “area with substrate VNLYFQS” value was 0.0674, the “area with substrate WNLYFQS” value was 0.0624 and the “area with substrate YNLYFQS” value was 0.0275.

With MGESLFKGPRDYNPISSSICHLTNESDGHTTSLYGIGFGPFIITNKHLFRRNNGTLVVQSLHGVFKVKDTTTLQQHLVDGRDMIIIRMPKDFPPFPQKLKFREPQREERICLVTTNFQTKSMSSMVSDTSCTFPSGDGIFWKHWIQTKDGQCGSPLVSTRDGFIVGIHSASNFTNTNNYFTSVPKNFMELLTNQEAQQWVSGWRLNADSVLWGGHLVFMVKPEEPFQPVKEATQL [K216L] the “area with substrate CNLYFQS” value was 0.0474, the “area with substrate INLYFQS” value was 0.0678 and the “area with substrate KNLYFQS” value was 0.0642. The “area with substrate MNLYFQS” value was 0.0757, the “area with substrate NNLYFQS” value was 0.0712 and the “area with substrate SNLYFQS” value was 0.0192.

With MGESLFKGPRDYNPISSSICHLTNESDGHTTSLYGIGFGPFIITNKHLFRRNNGTLVVQSLHGVFKVKDTTTLQQHLVDGRDMIIIRMPKDFPPFPQKLKFREPQREERICLVTTNFQTKSMSSMVSDTSCTFPSGDGIFWKHWIQTKDGQCGSPLVSTRDGFIVGIHSASNFTNTNNYFTSVPKNFMELLTNQEAQQWVSGWRLNADSVLWGGHKHFMVKPEEPFQPVKEATQL [V217H] the “area with substrate CNLYFQS” value was 0.0542, the “area with substrate FNLYFQS” value was 0.0605 and the “area with substrate HNLYFQS” value was 0.0566. The “area with substrate MNLYFQS” value was 0.0559, the “area with substrate NNLYFQS” value was 0.0458 and the “area with substrate PNLYFQS” value was 0.0627. The “area with substrate SNLYFQS” value was 0.0468, the “area with substrate WNLYFQS” value was 0.0712 and the “area with substrate YNLYFQS” value was 0.0551.

For MGESLFKGPRDYNPISSSICHLTNESDGHTTSLYGIGFGPFIITNKHLFRRNNGTLVVQSLHGVFKVKDTTTLQQHLVDGRDMIIIRMPKDFPPFPQKLKFREPQREERICLVTTNFQTKSMSSMVSDTSCTFPSGDGIFWKHWIQTKDGQCGSPLVSTRDGFIVGIHSASNFTNTNNYFTSVPKNFMELLTNQEAQQWVSGWRLNADSVLWGGHKNFMVKPEEPFQPVKEATQL [V217N], the “area with substrate CNLYFQS” value was 0.0546, the “area with substrate FNLYFQS” value was 0.0716 and the “area with substrate GNLYFQS” value was 0.0744. For the same variant, the “area with substrate INLYFQS” value was 0.0703, the “area with substrate KNLYFQS” value was 0.0679 and the “area with substrate LNLYFQS” value was 0.0587. The “area with substrate MNLYFQS” value was 0.0483, the “area with substrate NNLYFQS” value was 0.0619 and the “area with substrate SNLYFQS” value was 0.0605. For the same variant, the “area with substrate TNLYFQS” value was 0.0463, the “area with substrate VNLYFQS” value was 0.0431 and the “area with substrate WNLYFQS” value was 0.0602. For the same variant, the “area with substrate YNLYFQS” value was 0.0598.

With MGESLFKGPRDYNPISSSICHLTNESDGHTTSLYGIGFGPFIITNKHLFRRNNGTLVVQSLHGVFKVKDTTTLQQHLVDGRDMIIIRMPKDFPPFPQKLKFREPQREERICLVTTNFQTKSMSSMVSDTSCTFPSGDGIFWKHWIQTKDGQCGSPLVSTRDGFIVGIHSASNFTNTNNYFTSVPKNFMELLTNQEAQQWVSGWRLNADSVLWGGHKVGMVKPEEPFQPVKEATQL [F218G] the “area with substrate CNLYFQS” value was 0.0689, the “area with substrate KNLYFQS” value was 0.0881 and the “area with substrate LNLYFQS” value was 0.0715. For the same variant, the “area with substrate MNLYFQS” value was 0.0662, the “area with substrate PNLYFQS” value was 0.0432 and the “area with substrate SNLYFQS” value was 0.0592. For the same variant, the “area with substrate TNLYFQS” value was 0.0681, the “area with substrate WNLYFQS” value was 0.0615 and the “area with substrate YNLYFQS” value was 0.0376.

For MGESLFKGPRDYNPISSSICHLTNESDGHTTSLYGIGFGPFIITNKHLFRRNNGTLVVQSLHGVFKVKDTTTLQQHLVDGRDMIIIRMPKDFPPFPQKLKFREPQREERICLVTTNFQTKSMSSMVSDTSCTFPSGDGIFWKHWIQTKDGQCGSPLVSTRDGFIVGIHSASNFTNTNNYFTSVPKNFMELLTNQEAQQWVSGWRLNADSVLWGGHKVHMVKPEEPFQPVKEATQL [F218H], the “area with substrate CNLYFQS” value was 0.0856, the “area with substrate FNLYFQS” value was 0.0492 and the “area with substrate INLYFQS” value was 0.0613. The “area with substrate MNLYFQS” value was 0.0659, the “area with substrate NNLYFQS” value was 0.0581 and the “area with substrate PNLYFQS” value was 0.0782. The “area with substrate TNLYFQS” value was 0.0502, the “area with substrate WNLYFQS” value was 0.0502 and the “area with substrate YNLYFQS” value was 0.0772.

With MGESLFKGPRDYNPISSSICHLTNESDGHTTSLYGIGFGPFIITNKHLFRRNNGTLVVQSLHGVFKVKDTTTLQQHLVDGRDMIIIRMPKDFPPFPQKLKFREPQREERICLVTTNFQTKSMSSMVSDTSCTFPSGDGIFWKHWIQTKDGQCGSPLVSTRDGFIVGIHSASNFTNTNNYFTSVPKNFMELLTNQEAQQWVSGWRLNADSVLWGGHKVSMVKPEEPFQPVKEATQL [F218S] the “area with substrate CNLYFQS” value was 0.0569, the “area with substrate FNLYFQS” value was 0.0587 and the “area with substrate GNLYFQS” value was 0.0478. The “area with substrate HNLYFQS” value was 0.0607, the “area with substrate INLYFQS” value was 0.0791 and the “area with substrate KNLYFQS” value was 0.0582. The “area with substrate NNLYFQS” value was 0.0566, the “area with substrate PNLYFQS” value was 0.072 and the “area with substrate QNLYFQS” value was 0.0593. For the same variant, the “area with substrate RNLYFQS” value was 0.0621, the “area with substrate SNLYFQS” value was 0.0678 and the “area with substrate TNLYFQS” value was 0.0576. For the same variant, the “area with substrate WNLYFQS” value was 0.0566.

For MGESLFKGPRDYNPISSSICHLTNESDGHTTSLYGIGFGPFIITNKHLFRRNNGTLVVQSLHGVFKVKDTTTLQQHLVDGRDMIIIRMPKDFPPFPQKLKFREPQREERICLVTTNFQTKSMSSMVSDTSCTFPSGDGIFWKHWIQTKDGQCGSPLVSTRDGFIVGIHSASNFTNTNNYFTSVPKNFMELLTNQEAQQWVSGWRLNADSVLWGGHKVFDVKPEEPFQPVKEATQL [M219D], the “area with substrate CNLYFQS” value was 0.0472, the “area with substrate FNLYFQS” value was 0.0667 and the “area with substrate GNLYFQS” value was 0.0615. The “area with substrate HNLYFQS” value was 0.0596, the “area with substrate INLYFQS” value was 0.0611 and the “area with substrate KNLYFQS” value was 0.064. The “area with substrate LNLYFQS” value was 0.0568, the “area with substrate MNLYFQS” value was 0.0539 and the “area with substrate PNLYFQS” value was 0.0565. The “area with substrate QNLYFQS” value was 0.0651, the “area with substrate SNLYFQS” value was 0.0554 and the “area with substrate TNLYFQS” value was 0.0631. For the same variant, the “area with substrate WNLYFQS” value was 0.0656.

In the case of MGESLFKGPRDYNPISSSICHLTNESDGHTTSLYGIGFGPFIITNKHLFRRNNGTLVVQSLHGVFKVKDTTTLQQHLVDGRDMIIIRMPKDFPPFPQKLKFREPQREERICLVTTNFQTKSMSSMVSDTSCTFPSGDGIFWKHWIQTKDGQCGSPLVSTRDGFIVGIHSASNFTNTNNYFTSVPKNFMELLTNQEAQQWVSGWRLNADSVLWGGHKVFLVKPEEPFQPVKEATQL [M219L], the “area with substrate CNLYFQS” value is reported as 0.0645, the “area with substrate GNLYFQS” value is reported as 0.0643 and the “area with substrate KNLYFQS” value is reported as 0.061. For the same variant, the “area with substrate LNLYFQS” value was 0.0563, the “area with substrate MNLYFQS” value was 0.0461 and the “area with substrate SNLYFQS” value was 0.07. The “area with substrate TNLYFQS” value was 0.0594 and the “area with substrate WNLYFQS” value was 0.092.
